# Measurements as given in the supplement of paper PMC8728848.
# Some of the results follow.
# B1: Cp ZmpB (Clostridium perfringens), Q0TR08 (protein)
# chain: MNKRKIAAIILATMITNLSATTIDVLAQELNTKNNSKVEVSHDDESHQARVSKFDLYNSDKLDAYNQEFQVSRSNIKSINNNGGKYNSSTIDKAIDGNLETHWETGKPNDANFTNEVVVTFNEITNIDRIVYSARRDSARGKGFAKEFEIYASLKDEGDDFNLVSSGEYTESTRDLVEIKFNPTDFKRLKFKFKKADQNWASAAEFMFYKEDKLNEKFNGLFTDSSMNKVSEEFNTLEKLNAFENELKDHPIYDLYKEGLNNARAILTETSENPTKATLGQITYNLNDDYNNQYRMPYKNIKAIKNNGRHYAAQNIEKAIDNDVNTYWETGTLNSSSFNNEVEVEFNDLVTLDRIVYGSRQSDLKGFAEEVYIYASRTSKGDTYKLVATGAHEATKGLVEAKFEPTEFKRVKFKFKKSKQNSATLNELMFYKPDEVYSSIPKLFTDGTMSELSEEFNSLEKINAFKEKAKNHPLYNDFNETIELAESLISNPRKEDVLELEMRGDSISEAKKRKVWNFQDWQITGLSARAGDKITVYVDVAEGDPTPTLLYKQSLTQHGGATSFQLKPGKNEITIPEINYESNGIPKDVIQGGDLFFTNYKSDSQKRAPKVRIEGASKYPVFILGKSDENEVMKELEAYVEKIKAEPKTTPNIFAVSSNKSLEFVQATYALDWYKKNNKTPKYTAEQWDQYIADAMGFWGFDNSKDVNSDFNFRIMPMVKNLSGGAFMNAGNGVIGIRPGNQDAILAANKGWGVAHELGHNFDTGGRTIVEVTNNMMPLFFESKYKTKTRITDQNIWENNTYPKVGLDDYSNNELYNKADSTHLAQLAPLWQLYLYDNTFYGKFERQFRERDFGNKNREDIYKSWVVAASDAMELDLTEFFARHGIRVDDKVKEDLAKYPKPDKKIYYLNDLAMNYKGDGFTENAKVSVSTSGSNGNIKLSFSVDDENKDNILGYEIRRDGKYVGFTSNDSFVDTKSNLDEDGVYVVTPYDRKLNTLNPIEVNALQPTLSVNPVITLALGEEFNEEEYIVAKDIKGNSLSESVKVKSSNVNTSKVGEYEVLYSLEDSKGNEYTKTSKVNVVSRKEYMSDLTPKQSSNGWGTVRKDKSISGGVIGLTRDGDFVDYNKGLGLHSNAEYVYDLEGKDYDYFESYVGVDKAMSSRPASSVIFKVLVDGEEKFNSGVMRSTTPQKYVKVDVKNAKELKLIVNDAGDGDSSDHASFGDAKLATLSSKPIIKGENLAYSMDEKVDLMKGITATDIEDGNITSKVQIKSSDFVEGKSGIFTVVYSVTDSDGLTSECSRTIAVTDKETQLSDLNWKSATIGSGSVRKDRAVSGNQIRLLNEDNSVETFAKGIGTHSYSEIVYNSEGYDIFDTWVGIDRHVADKKVSSVKFKVYVDGELKAETDVMRIDTPKKRLVVDVRNSKEIKLVVDVADNGNNWDHADWADAKFRNLAEYDASELNKAIEEAKKLDLNNYTEESSEALKNAISKGEEALLSKDKETINSALEELNKEMNSLVKVDLNAVINIPDKYLLKSIQNQLNKTGDITLGDMYSLTTLTLSGVEDLTGLENAKNLETLNMDYNEVKDLRPLSKLKKLNTLNAQEQFIAAGELKPSNGKVIGDSKVYNREGKNVAKTIRVVDKNGNTILEQDAKDEFTINTKDLSSGLYGVHVLFEDEGFSGVMFYLFNV
# Key:
# Assay in all cases: glycan array binding signal (z-score within array); higher = stronger binding
# Conditions in all cases: glycan notation: IUPAC condensed, linker removed
# [1] = biological target: Neu5Ac(a2-6)Gal
# Procedure, shortened: (§1)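 The binding signal is a Z-score computed within each array and averaged over linkers. Arrays of the same protein sequence at different concentrations or buffers were also averaged together. Data originate from 3228 arrays in the Consortium for Functional Glycomics database, kept only where the protein sequence was available.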
# [2] = biological target: Neu5Ac(a2-6)Gal(b1-3)GlcNAc(b1-3)[Gal(b1-4)GlcNAc(b1-6)]Gal(b1-4)Glc
# Procedure, shortened: as §1
# [3] = biological target: Neu5Ac(a2-6)Gal(b1-4)Glc
# Procedure, shortened: as §1
# [4] = biological target: Neu5Ac(a2-6)Gal(b1-4)GlcNAc
# Procedure, shortened: as §1
# [5] = biological target: Neu5Ac(a2-6)Gal(b1-4)GlcNAc(b1-2)Man
# Procedure, shortened: as §1
# [6] = biological target: Neu5Ac(a2-6)Gal(b1-4)GlcNAc(b1-2)Man(a1-3)Man(b1-4)GlcNAc(b1-4)GlcNAc
# Procedure, shortened: as §1
# [7] = biological target: Neu5Ac(a2-6)Gal(b1-4)GlcNAc(b1-2)Man(a1-3)[Gal(b1-4)GlcNAc(b1-2)Man(a1-6)]Man(b1-4)GlcNAc(b1-4)GlcNAc
# Procedure, shortened: as §1
# [8] = biological target: Neu5Ac(a2-6)Gal(b1-4)GlcNAc(b1-2)Man(a1-3)[GlcNAc(b1-4)][Neu5Ac(a2-6)Gal(b1-4)GlcNAc(b1-2)Man(a1-6)]Man(b1-4)GlcNAc(b1-4)GlcNAc
# Procedure, shortened: as §1
# [9] = biological target: Neu5Ac(a2-6)Gal(b1-4)GlcNAc(b1-2)Man(a1-3)[Man(a1-6)]Man(b1-4)GlcNAc(b1-4)GlcNAc
# Procedure, shortened: as §1
# [10] = biological target: Neu5Ac(a2-6)Gal(b1-4)GlcNAc(b1-2)Man(a1-3)[Neu5Ac(a2-3)Gal(b1-4)GlcNAc(b1-2)Man(a1-6)]Man(b1-4)GlcNAc(b1-4)GlcNAc
# Procedure, shortened: as §1
# [11] = biological target: Neu5Ac(a2-6)Gal(b1-4)GlcNAc(b1-2)Man(a1-3)[Neu5Ac(a2-6)Gal(b1-4)GlcNAc(b1-2)Man(a1-6)]Man(b1-4)GlcNAc(b1-4)GlcNAc
# Procedure, shortened: as §1
# [12] = biological target: Neu5Ac(a2-6)Gal(b1-4)GlcNAc(b1-2)Man(a1-3)[Neu5Ac(a2-6)Gal(b1-4)GlcNAc(b1-2)Man(a1-6)]Man(b1-4)GlcNAc(b1-4)[Fuc(a1-6)]GlcNAc
# Procedure, shortened: as §1
# [13] = biological target: Neu5Ac(a2-6)Gal(b1-4)GlcNAc(b1-2)Man(a1-6)Man(b1-4)GlcNAc(b1-4)GlcNAc
# Procedure, shortened: as §1
# [14] = biological target: Neu5Ac(a2-6)Gal(b1-4)GlcNAc(b1-2)Man(a1-6)[Gal(b1-4)GlcNAc(b1-2)Man(a1-3)]Man(b1-4)GlcNAc(b1-4)GlcNAc
# Procedure, shortened: as §1
# [15] = biological target: Neu5Ac(a2-6)Gal(b1-4)GlcNAc(b1-2)Man(a1-6)[GlcNAc(b1-2)Man(a1-3)]Man(b1-4)GlcNAc(b1-4)GlcNAc
# Procedure, shortened: as §1
# [16] = biological target: Neu5Ac(a2-6)Gal(b1-4)GlcNAc(b1-2)Man(a1-6)[Man(a1-3)]Man(b1-4)GlcNAc(b1-4)GlcNAc
# Procedure, shortened: as §1
# [17] = biological target: Neu5Ac(a2-6)Gal(b1-4)GlcNAc(b1-2)[Neu5Ac(a2-6)Gal(b1-4)GlcNAc(b1-4)]Man(a1-3)[GlcNAc(b1-4)][Neu5Ac(a2-6)Gal(b1-4)GlcNAc(b1-2)[Neu5Ac(a2-6)Gal(b1-4)GlcNAc(b1-6)]Man(a1-6)]Man(b1-4)GlcNAc(b1-4)GlcNAc
# Procedure, shortened: as §1
# [18] = biological target: Neu5Ac(a2-6)Gal(b1-4)GlcNAc(b1-2)[Neu5Ac(a2-6)Gal(b1-4)GlcNAc(b1-4)]Man(a1-3)[GlcNAc(b1-4)][Neu5Ac(a2-6)Gal(b1-4)GlcNAc(b1-4)Man(a1-6)]Man(b1-4)GlcNAc(b1-4)GlcNAc
# Procedure, shortened: as §1
# [19] = biological target: Neu5Ac(a2-6)Gal(b1-4)GlcNAc(b1-2)[Neu5Ac(a2-6)Gal(b1-4)GlcNAc(b1-6)]Man(a1-6)[Neu5Ac(a2-6)Gal(b1-4)GlcNAc(b1-2)Man(a1-3)][GlcNAc(b1-4)]Man(b1-4)GlcNAc(b1-4)GlcNAc
# Procedure, shortened: as §1
# [20] = biological target: Neu5Ac(a2-6)Gal(b1-4)GlcNAc(b1-3)Gal(b1-3)GlcNAc
# Procedure, shortened: as §1
# [21] = biological target: Neu5Ac(a2-6)Gal(b1-4)GlcNAc(b1-3)Gal(b1-4)GlcNAc
# Procedure, shortened: as §1
# [22] = biological target: Neu5Ac(a2-6)Gal(b1-4)GlcNAc(b1-3)Gal(b1-4)GlcNAc(b1-2)Man(a1-3)[Neu5Ac(a2-6)Gal(b1-4)GlcNAc(b1-3)Gal(b1-4)GlcNAc(b1-2)Man(a1-6)]GalNAc
# Procedure, shortened: as §1
# [23] = biological target: Neu5Ac(a2-6)Gal(b1-4)GlcNAc(b1-3)Gal(b1-4)GlcNAc(b1-3)Gal(b1-4)GlcNAc
# Procedure, shortened: as §1
binder,measurement,setting,value
B1,glycan array binding signal (z-score),[1],-0.172
same,glycan array binding signal (z-score),[2],-0.189
same,glycan array binding signal (z-score),[3],-0.214
same,glycan array binding signal (z-score),[4],-0.28
same,glycan array binding signal (z-score),[5],0.056
same,glycan array binding signal (z-score),[6],-0.151
same,glycan array binding signal (z-score),[7],0.472
same,glycan array binding signal (z-score),[8],-0.267
same,glycan array binding signal (z-score),[9],-0.365
same,glycan array binding signal (z-score),[10],0.529
same,glycan array binding signal (z-score),[11],-0.121
same,glycan array binding signal (z-score),[12],-0.037
same,glycan array binding signal (z-score),[13],-0.16
same,glycan array binding signal (z-score),[14],-0.104
same,glycan array binding signal (z-score),[15],-0.274
same,glycan array binding signal (z-score),[16],-0.386
same,glycan array binding signal (z-score),[17],0.198
same,glycan array binding signal (z-score),[18],0.1
same,glycan array binding signal (z-score),[19],-0.171
same,glycan array binding signal (z-score),[20],-0.479
same,glycan array binding signal (z-score),[21],1.03
same,glycan array binding signal (z-score),[22],-0.241
same,glycan array binding signal (z-score),[23],0.06
